{"source": "PubChem BioAssay AID686979", "about": "(National Center for Advancing Translational Sciences (NCATS), 2013)", "note": "About 50,000 (12%) of roughly 420,000 compounds were called active. Inconclusive means that the source gave no clear call. Such entries were picked first, then a sample of the others. Calls come from the whole dose curve; as a rule, active = well fitted inhibition curve with a large enough effect; inconclusive = small, poorly fitted or top-dose-only effect; inactive = flat fitted curve, though single readings scatter. No potency is given beside an inconclusive call; the fits are too rough."}
{"assay": "qHTS for Inhibitors of human tyrosyl-DNA phosphodiesterase 1 (TDP1): qHTS in cells in presence of CPT; note: nearly all actives have a fitted effect of over 55% in size; note: potency is the fitted concentration of half-maximal effect; tags give direction and shape of the fitted curve; for activity change, negative = growth inhibition: % is set by controls: 0 for no effect and ±100 for the full control effect", "conditions": "chicken DT40 Tdp1-/-;hTDP1 cells + 20 nM CPT, ATP luminescence, 48 h; activity change, negative = growth inhibition: at 46.2 µM (top of the series) unless noted", "summary_of_the_method": "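Chicken DT40 Tdp1-/- cells complemented with human TDP1, 400 cells/well, exposed to compounds plus 20 nM camptothecin for at least 48 h at 37 C; viability read as ATP content by CellTiter-Glo luminescence.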"}
{"molecule": "CCCCCc1cc(=O)oc2c(C(CCN3CCCC(C)C3)c3cc(OC)c(OC)c(OC)c3)c(OC)cc(OC)c12", "note": "(stereo not drawn)", "Potency": "inconclusive [inhibitor, single point]"}
{"molecule": "CC(=O)N1CC(C)Oc2ccc(S(=O)(=O)NC(CC(=O)O)c3ccc(C)cc3C)cc21", "note": "(stereo not drawn)", "activity change, negative = growth inhibition": "inconclusive: -35.1% [inhibitor]"}
{"molecule": "Cc1oc(-c2ccccc2F)nc1CS(=O)(=O)CC(=O)NCc1ccccc1Cl", "Potency": "inconclusive [inhibitor, single point]"}
{"molecule": "O=C(CC1=NCCNC(c2ccccc2)C1)c1ccccc1O", "note": "(stereo not drawn)", "Potency": "inconclusive [inhibitor, single point]"}
{"molecule": "Cc1ccc(CNS(=O)(=O)c2ccc(-c3cnc(C4CC4)o3)cc2)cc1", "Potency": "inconclusive [inhibitor, single point]"}
{"molecule": "CC(C)CCn1c(O)c(N=NC(=O)Cn2ccc(C(F)(F)F)n2)c2ccccc21", "Potency": "active: 20.6 µM"}
{"molecule": "O=C(CN(C(=O)c1csnn1)c1ccccc1C(F)(F)F)NC1CCCCC1", "activity change, negative = growth inhibition": "inactive: 6.49%"}
{"molecule": "CCOC(=O)Cn1c(COc2ccccc2OC)[n+](C)c2ccccc21", "Potency": "inconclusive [inhibitor, single point]"}
{"molecule": "Cc1ccc2c(c1)c1c(n2CC(O)Cn2ccnc2C)C(=O)CCC1", "note": "(stereo not drawn)", "Potency": "inconclusive [inhibitor, single point]"}
{"molecule": "CN1CCN(CC(=O)N2N=C(c3cccs3)CC2c2ccco2)CC1", "note": "(stereo not drawn)", "activity change, negative = growth inhibition": "inactive: -7.77%"}
{"molecule": "CCC(CC)C(=O)Nc1c(C(=O)N2CCN(c3ccccc3)CC2)oc2ccccc12", "Potency": "active: 20.6 µM"}
{"molecule": "COc1ccc(C(=O)NCc2cccnc2)cc1", "activity change, negative = growth inhibition": "inactive: 2.32%"}
{"molecule": "CC[C@]12C(=O)N(C)C[C@H]([C@@H]3C(=O)N(C)C(=O)[C@@H]31)N2C(=O)c1ccccc1", "activity change, negative = growth inhibition": "inactive: -1.08%"}
{"molecule": "COC(=O)C1N2C(=O)N(C)[C@H](C(=O)OC)[C@H]2SC1(C)C", "note": "(stereo partly drawn)", "activity change, negative = growth inhibition": "inactive: -9.29%"}
{"molecule": "Cc1ccc(S(=O)(=O)c2c(N)n(C)c3nc4ccccc4nc23)cc1", "Potency": "inconclusive [inhibitor, single point]"}
{"molecule": "CC(=O)C(CC(=O)N1CCCc2ccccc21)C(=O)Nc1ccc(F)cc1", "note": "(stereo not drawn)", "activity change, negative = growth inhibition": "inactive: -25.8%"}
{"molecule": "COc1ccc(CCNC(=O)CSc2ccc3ccccc3c2)cc1OC", "Potency": "inconclusive [inhibitor, partial curve, poor fit]"}
{"molecule": "CC(C)c1ccc(-n2nnnc2SCc2nc(N)nc(N)n2)cc1", "Potency": "inconclusive [inhibitor, partial curve]"}
{"molecule": "Cc1ccc(-c2nnc(N3CCCCC3)c3ccccc23)cc1", "Potency": "inconclusive [inhibitor, single point]"}
{"molecule": "CCCN(CCC)CC(O)Cn1cc(/C=C/C(=O)c2ccc(OC)cc2)c2ccccc21", "note": "(stereo not drawn)", "Potency": "inconclusive [inhibitor, single point]"}
{"molecule": "COc1ccc(C(=O)CCC(=O)NCCc2c[nH]c3ccccc23)cc1OC", "Potency": "inconclusive [inhibitor, single point]"}
{"molecule": "Cc1ccc(S(=O)(=O)Nc2cccc(-c3ccc(N4CCCCCC4)nn3)c2)cc1C", "Potency": "inconclusive [inhibitor, single point]"}
{"molecule": "CC1CCCCN1C(=O)c1ccc2c(c1)N(Cc1cccc(Cl)c1)C(=O)c1ccccc1S2=O", "note": "(stereo not drawn)", "Potency": "inconclusive [inhibitor, single point]"}
{"molecule": "CCCCNC(=O)C1(C)CCCCN1C(=O)c1cc(OC)ccc1Br", "note": "(stereo not drawn)", "Potency": "inconclusive [inhibitor, single point]"}
{"molecule": "Cc1ccc(CNC(=O)c2ccc(N3CCC4(CC3)CC(c3ccccc3)=NO4)c(NC(=O)c3ccco3)c2)cc1", "Potency": "inconclusive [inhibitor, single point]"}
{"molecule": "COc1ccc(NC(=O)NNC(=O)COc2ccc3ccccc3c2)cc1", "activity change, negative = growth inhibition": "inactive: 5.18%"}
{"molecule": "COc1cc2c3c(c1)C(C)CC(C)(C)N3C(=O)C2=O", "note": "(stereo not drawn)", "Potency": "active: 2.59 µM"}
{"molecule": "CCCCNC(=O)c1cccc(-n2cnc3cccnc32)c1C", "Potency": "inconclusive [inhibitor, single point]"}
{"molecule": "C/C(=N\\NC(=S)NC(C)C)c1ccc(Cl)c([N+](=O)[O-])c1", "Potency": "active: 18.4 µM"}
{"molecule": "COC(c1ccccc1)c1nnc(CCC(=O)NCCCc2ccccc2)o1", "note": "(stereo not drawn)", "Potency": "inconclusive [inhibitor, single point]"}
{"molecule": "COc1ccc(CC(=O)N/N=C(\\C)c2cccnc2)cc1", "activity change, negative = growth inhibition": "inactive: -9.1%"}
{"molecule": "CCN(CC)CCCNC(=S)N1CCN(c2nc3ccccc3n2CC)CC1", "activity change, negative = growth inhibition": "inactive: 33.2%"}
{"molecule": "CCC[C@@H](CN1CCC[C@H]1CN1C(N)=NC[C@@H]1Cc1ccccc1)N1C[C@@H]([C@H](C)CC)N(CCc2ccc(Cl)c(Cl)c2)C1=N", "Potency": "inconclusive [inhibitor, single point]"}
{"molecule": "Cc1nc(N2CCN(S(=O)(=O)c3ccccc3C#N)CC2)c2c(-c3cccs3)csc2n1", "Potency": "inconclusive [inhibitor, single point]"}
{"molecule": "O=C(OCn1nnc2ccccc2c1=O)c1ccc2c(=O)n3c(nc2c1)CCC3", "activity change, negative = growth inhibition": "inactive: -25.5%"}
{"molecule": "COc1ccc(C(C(O)C(=O)c2c[nH]c3ccccc23)N2CCN(c3ccccc3)CC2)cc1", "note": "(stereo not drawn)", "Potency": "inconclusive [inhibitor, single point]"}
{"molecule": "Cc1cc(N(C)Cc2ccccc2)n2nc(-c3ccc(C(C)(C)C)cc3)nc2n1", "Potency": "inconclusive [inhibitor, single point]"}
{"molecule": "CCOC(=O)c1c(-c2ccc(C)s2)csc1N", "Potency": "inconclusive [inhibitor, single point]"}
{"molecule": "CCCc1cc(=O)n2[nH]c(C)c(-c3ccc(OC)cc3)c2n1", "Potency": "inconclusive [inhibitor, single point]"}
{"molecule": "Cc1cn([C@H]2C[C@H](O)[C@@H](CNCc3ccc(-c4cc(Cl)ccc4C(F)(F)F)o3)O2)c(=O)[nH]c1=O", "Potency": "inconclusive [inhibitor, single point]"}
{"molecule": "COc1ccc(CCNC(=O)C(=O)c2cn(CC(=O)N3CCOCC3)c3ccccc23)cc1", "activity change, negative = growth inhibition": "inactive: 19.7%"}
{"molecule": "CCOc1ccc(-c2c(C)nn3c(C)c(C(=O)NCc4ccc(Cl)cc4)cnc23)cc1OCC", "Potency": "active: 1.16 µM"}
{"molecule": "Nc1nc(NCc2ccco2)nc(Nc2ccc(F)cc2)c1[N+](=O)[O-]", "activity change, negative = growth inhibition": "inactive: 3.29%"}
{"molecule": "C=CCNc1nc(-c2ccc3c(c2)OCCO3)cs1", "activity change, negative = growth inhibition": "inactive: 1.72%"}
{"molecule": "O=C(CCN1CCc2ccccc2C1)Nc1ccc(F)c(F)c1", "Potency": "inconclusive [inhibitor, single point]"}
{"molecule": "CCc1ccc(-n2nc3cc(C)c(NC(=O)c4ccccc4C)cc3n2)cc1", "Potency": "inconclusive [inhibitor, partial curve, poor fit]"}
{"molecule": "Nc1c(Cl)cc(-c2csc(N3CCCC3c3nc4cc(Cl)c(Cl)cc4n3CCCO)n2)cc1Cl", "note": "(stereo not drawn)", "Potency": "inconclusive [inhibitor, single point]"}
{"molecule": "O=C(OCC(=O)N1CCN(S(=O)(=O)c2ccc(Cl)cc2)CC1)c1ccc([N+](=O)[O-])o1", "Potency": "active: 18.4 µM"}
{"molecule": "O=C(Nc1ncccc1O)c1cccc(S(=O)(=O)N2CCCC2)c1", "activity change, negative = growth inhibition": "inactive: -14.1%"}
{"molecule": "CCOc1ccc(OCc2cccc(C(=O)N3CCOCC3)c2)cc1", "Potency": "inconclusive [inhibitor, partial curve, poor fit]"}
{"molecule": "O=C1C2CC=CCC2C(=O)N1c1ccc(NCCc2ccccc2)c([N+](=O)[O-])c1", "note": "(stereo not drawn)", "Potency": "inconclusive [inhibitor, single point]"}
{"molecule": "CCNc1nc(OC)nc(Oc2ccc(=O)n(-c3ccccc3)n2)n1", "activity change, negative = growth inhibition": "inactive: -19.6%"}
{"molecule": "Cc1ccc(S(=O)(=O)c2c(C)cc(C)nc2Oc2cccc(C)c2C)cc1", "Potency": "inconclusive [inhibitor, single point]"}
{"molecule": "COc1ccc(OCCn2nnc3sc4c(c3c2=O)CCC(C(C)(C)C)C4)cc1", "note": "(stereo not drawn)", "Potency": "inconclusive [inhibitor, single point]"}
{"molecule": "COc1ccc(CN2CCOc3c(O)cc(-c4cc(C)c5ccc(F)cc5n4)cc3C2)c(O)c1", "Potency": "inconclusive [inhibitor, single point]"}
{"molecule": "O=C(/C=C/c1ccco1)Oc1ccc(C(=S)N2CCOCC2)cc1", "Potency": "inconclusive [inhibitor, single point]"}
{"molecule": "O=C(CCNC(=O)C1CCN(S(=O)(=O)c2ccccc2)CC1)NCc1ccc(Cl)cc1", "activity change, negative = growth inhibition": "inactive: -26.8%"}
{"molecule": "COc1cccc(/C=C/C(=O)OCC(=O)c2ccc[nH]2)c1", "activity change, negative = growth inhibition": "inactive: -7.26%"}
{"molecule": "COc1ccccc1COCC(O)CNCCc1ccc(C(F)(F)F)cc1", "note": "(stereo not drawn)", "Potency": "inconclusive [inhibitor, single point]"}
{"molecule": "CCCCCn1c(=O)[nH]c2cc(C(=O)NCCN(C)CCCC)ccc2c1=O", "Potency": "inconclusive [inhibitor, single point]"}
{"molecule": "CC(=O)NCCn1c(SCc2ccccc2F)nc2ccccc2c1=O", "Potency": "active: 16.4 µM"}
{"molecule": "COCCn1c(-c2cc(OC)c(OC)c(OC)c2)nc2oc3ccccc3c(=O)c2c1=O", "activity change, negative = growth inhibition": "inconclusive: -43.8% [inhibitor]"}
{"molecule": "CCC(NC(=O)Nc1cc(Cl)ccc1OC)c1c(-n2cccc2)sc2c1CCN(C)C2", "note": "(stereo not drawn)", "Potency": "inconclusive [inhibitor, single point]"}
{"molecule": "O=C(NCc1ccc(F)cc1F)[C@@H]1CCCN1C(=O)[C@@H]1CCCN1C(=O)c1ccc(Cl)cc1", "Potency": "inconclusive [inhibitor, single point]"}
{"molecule": "COc1ccc(CN2CCOc3ccc(CN4CCC(Oc5cccnc5)CC4)cc3C2)cc1", "Potency": "active: 20.6 µM"}
{"molecule": "O=C(c1ccc(Cl)cc1)c1coc2ccc(O)cc12", "Potency": "inconclusive [inhibitor, partial curve, poor fit]"}
{"molecule": "S=C1CCC(c2ccc(Br)cc2)=NN1c1ccccc1", "Potency": "inconclusive [inhibitor, single point]"}
{"molecule": "Cc1ccc(C)c(NC(=O)CN(C)C(=O)c2cccc(S(=O)(=O)N3CCCC3)c2)c1", "activity change, negative = growth inhibition": "inactive: 5.35%"}
